Results: PubChem BioAssay (Tox21)
The shares of active, inactive and inconclusive entries below differ from those in the screen. Potencies beside an inconclusive call are fits to weak or partial responses and may not hold up. The source made the active and inactive calls. Calls come from the whole dose curve; as a rule, active = well fitted cell-killing curve with a large enough effect in the repeat runs; inconclusive = weak or mixed curves; inactive = no such curve, though single readings can be large or run the other way.

Assay: qHTS assay to identify small molecule antagonists of the peroxisome proliferator-activated receptor delta (PPARd) signaling pathway - cell viability counter screen (AID 743213); note: nearly all actives have a fitted effect of over 50% in size
Conditions: PPARd-bla HEK293H viability, CellTiter-Glo luminescence, 17 h; viability change, negative = cytotoxic: at 62 µM (top of the series) unless noted
From the text: U.S. Tox21 Program National Center for Advancing Translational Sciences [NCATS] NIH Chemical Genomics Center [NCGC] U.S. Environmental Protection Agency [EPA] National Institutes of Environmental Health Sciences [NIEHS] National Toxicology Program [NTP] U.S. Food and Drug Administration [FDA] Tox21 Assay Overview: The peroxisome proliferator-activated receptors (PPARs) are lipid-activated transcription factors of the nuclear receptor superfamily with three distinct subtypes namely PPAR alpha, PPAR delta (PPARd) and PPAR gamma. All these subtypes heterodimerizes with Retinoid X receptor (RXR) and have different physiological functions. […] To identify the compounds that inhibit PPAR-delta signaling, GeneBLAzer PPAR delta UAS-bla HEK293H cell line (Invitrogen, Carlsbad, CA, USA) containing a beta-lactamase reporter gene under the control of an Upstream Activator Sequence (UAS) was used to screen the Tox21 compound library. The cytotoxicity of the Tox21 compound library against the PPARd-bla cell line was tested in parallel by measuring the cell viability using CellTiter-Glo assay (Promega, Madison, WI) in the same wells.
Tox21 Assay Protocol Summary: PPARd-bla cells were dispensed at 3000 cells/5uL/well in 1536-well black wall/clear bottom plates using a Multidrop Combi (Thermo Fisher Scientific, Waltham, MA) dispenser. After the assay plates were incubated at 37 C and 5% CO2 for 5 h, 23 nL of compounds dissolved in DMSO, positive controls or DMSO only was transferred to the assay plate by a Pintool station (Kalypsys, San Diego, CA), followed by addition of 1ul L165041 (300 nM, final concentration in the wells). The assay plates were incubated at 37 C for 17 h, and then 1 uL of LiveBLAzerTM B/G FRET substrate was added using a Bioraptr Flying Reagent Dispenser (FRD) workstation (Beckman Coulter, Indianapolis, IN, USA). The assay plates were incubated at room temperature for 2 h and fluorescence intensity was measured by an Envision plate reader (PerkinElmer, Shelton, CT). For cell viability readout that measures cytotoxicity, 3 ul/well of CellTiter-Glo reagent was added into the assay plates using a Bioraptr FRD. After 30 min incubation at room temperature, the luminescence intensity in the plates was measured using a ViewLux plate reader (PerkinElmer).
% is set by controls: 0 for no effect and ±100 for the full control effect; potency is the fitted concentration of half-maximal effect; tags give direction and shape of the fitted curve.

| SMILES | Potency | viability change, negative = cytotoxic |
| --- | --- | --- |
| CN1CCC(OC(c2ccccc2)c2ccccc2)CC1 | inconclusive: 15000 nM [cytotoxic, partial curve, poor fit] | – |
| CCCOC(OCCC)OCCC | inconclusive: 61600 nM [rising, partial curve, poor fit] | – |
| C[Si]1(C)O[Si](C)(C)O[Si](C)(C)O[Si](C)(C)O1 | inconclusive: 87.1 nM [rising, full curve, poor fit] | – |
| O=c1[nH]c(=O)n([C@H]2C[C@H](O)[C@@H](CO)O2)cc1I | inactive | – |
| Cc1ncc(CO)c(C=O)c1O | inactive | – |
| COc1ccc(CCC(C)=O)cc1 | inconclusive: 266 nM [cytotoxic, full curve, poor fit] | – |
| C[N+](C)(C)CCOC(=O)CCC(=O)OCC[N+](C)(C)C | – | inconclusive: 5.64% [cytotoxic] |
| c1ccc(B(c2ccccc2)c2ccccc2)cc1 | inconclusive: 54900 nM [cytotoxic, single point] | – |
| O=S1(=O)N=C(O)c2ccccc21 | inactive | – |
| CC(C)OCCO | inconclusive: 1100 nM [cytotoxic, single point] | – |
| O=S(=O)(O)c1ccc2c(N=Nc3ccc(S(=O)(=O)O)c4ccccc34)c(O)c(S(=O)(=O)O)cc2c1 | inconclusive: 3050 nM [rising, single point] | – |
| C=CCCC(=O)O | – | inconclusive: 28.5% |
| O=S(O)CO | inconclusive: 487 nM [cytotoxic, single point] | – |
| CCOc1ccccc1OCCN[C@H](C)Cc1ccc(OC)c(S(N)(=O)=O)c1 | inconclusive: 2980 nM [cytotoxic, partial curve, poor fit] | – |
| CC(=O)Nc1ccc(O)cc1 | – | inconclusive: -18.3% [cytotoxic] [at 80.4 µM] |
| CCCO[Si](OCCC)(OCCC)OCCC | inconclusive: 27500 nM [rising, partial curve, poor fit] | – |
| NCCN1CCNC1=O | inconclusive: 12300 nM [cytotoxic, single point] | – |
| CN1C(=O)CC(c2ccccc2)C1=O (stereo not given) | inactive | – |
| CCCC1CCCC(=O)O1 (stereo not given) | inactive | – |
| CCOC(=O)OCC/C(SC(=O)OCC)=C(\C)N(C=O)Cc1cnc(C)nc1N | inconclusive: 37.6 nM [cytotoxic, full curve, poor fit] | – |

| SMILES | Potency | viability change, negative = cytotoxic |
| --- | --- | --- |
| C[Si](C)(C)C | inconclusive: 1040 nM [cytotoxic, single point] | – |
| CC(O)COCC(C)O (stereo not given) | inactive | – |
| CC(CCO)CCCC(C)(C)O (stereo not given) | inactive | – |
| CC(C)(O)C(=O)c1ccc(OCCO)cc1 | inactive | – |
| COc1cc(C(=S)N2CCOCC2)ccc1O | inconclusive: 237 nM [cytotoxic, single point] | – |
| O=C(O)c1cccc(O)c1 | – | inconclusive: 4.71% [cytotoxic] [at 80.4 µM] |
| CCCCc1ccc(Cl)cc1 | inactive | – |
| NC(=O)NO | inactive | – |
| CC1(COc2ccc(CC3SC(=O)NC3=O)cc2)CCCCC1 (stereo not given) | inactive | – |
| C=CCNCC=C | inactive | – |
| NC(=O)c1ccc(N)cc1 | inactive | – |
| NC(=O)NS(=O)(=O)c1ccc(Cl)cc1 | inconclusive: 1190 nM [cytotoxic, single point] | – |
| CCCCCCCCC(=O)OCC | inactive | – |
| CC(=O)Nc1ccc(S(N)(=O)=O)cc1 | inconclusive: 27.5 nM [cytotoxic, full curve, poor fit] | – |
| COc1ccc(C(=O)c2ccc(C)cc2)c(O)c1 | inconclusive: 35100 nM [rising, partial curve] | – |
| CN(C)CCCN(C)C | – | inactive: 1.43% [at 6.26 µM] |
| CCC(=O)Nc1cccc(N)c1 | inactive | – |
| C[C@@H]1CN(c2c(F)c(F)c3c(=O)c(C(=O)O)cn(C4CC4)c3c2F)C[C@H](C)N1 | inactive | – |
| C=CCOc1nc(OCC=C)nc(OCC=C)n1 | inconclusive: 2190 nM [cytotoxic, full curve, poor fit] | – |
| Cc1cccc(N)n1 | inconclusive: 26100 nM [cytotoxic, single point] | – |
